What all share (experiment): glycan array binding signal (z-score within array); higher = stronger binding
Holding throughout (details): glycan notation: IUPAC condensed, linker removed

The target in test [1] is Gal(b1-4)GlcNAc(b1-2)[Gal(b1-4)GlcNAc(b1-6)]Man(a1-6)[Gal(b1-4)GlcNAc(b1-2)Man(a1-3)]Man(b1-4)GlcNAc(b1-4)[Fuc(a1-6)]GlcNAc. The gist of the method:
(§1)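 Glycan array data were curated from 3228 arrays in the Consortium for Functional Glycomics database and kept only where the protein sequence was available. Glycan names were converted to IUPAC-condensed notation, and columns mapping to the same glycan were averaged. The binding signal is a within-array Z-score, averaged across arrays of the same protein sequence at different concentrations or buffers and across linkers. Negative Z-scores can be read as non-binding.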

Test [2] concerns the target Gal(b1-4)GlcNAc(b1-2)[Gal(b1-4)GlcNAc(b1-6)]Man(a1-6)[GlcNAc(b1-4)][Gal(b1-4)GlcNAc(b1-2)Man(a1-3)]Man(b1-4)GlcNAc(b1-4)GlcNAc. The gist of the method: as §1
Test [3] deals with Gal(b1-4)GlcNAc(b1-2)[Gal(b1-4)GlcNAc(b1-6)]Man(a1-6)[GlcNAc(b1-4)][Gal(b1-4)GlcNAc(b1-2)[Gal(b1-4)GlcNAc(b1-4)]Man(a1-3)]Man(b1-4)GlcNAc(b1-4)[Fuc(a1-6)]GlcNAc. The gist of the method: as §1
The target in test [4] is Gal(b1-4)GlcNAc(b1-3)Gal(b1-3)GalNAc. In a few lines: as §1
In test [5] the target is Gal(b1-4)GlcNAc(b1-3)Gal(b1-3)GlcNAc. In a few lines: as §1
Test [6] concerns the target Gal(b1-4)GlcNAc(b1-3)Gal(b1-4)Glc. The gist of the method:
as §1

For test [7], the target named is Gal(b1-4)GlcNAc(b1-3)Gal(b1-4)GlcNAc. In a few lines: as §1
Test [8] concerns the target Gal(b1-4)GlcNAc(b1-3)Gal(b1-4)GlcNAc(b1-2)Man(a1-3)[Gal(b1-4)GlcNAc(b1-3)Gal(b1-4)GlcNAc(b1-2)Man(a1-6)]Man(b1-4)GlcNAc(b1-4)GlcNAc. The gist of the method:
as §1

In test [9] the target is Gal(b1-4)GlcNAc(b1-3)Gal(b1-4)GlcNAc(b1-2)Man(a1-3)[Gal(b1-4)GlcNAc(b1-3)Gal(b1-4)GlcNAc(b1-2)Man(a1-6)]Man(b1-4)GlcNAc(b1-4)[Fuc(a1-6)]GlcNAc. The gist of the method:
as §1

For test [10], the target named is Gal(b1-4)GlcNAc(b1-3)Gal(b1-4)GlcNAc(b1-2)[Gal(b1-4)GlcNAc(b1-3)Gal(b1-4)GlcNAc(b1-6)]Man(a1-6)[Gal(b1-4)GlcNAc(b1-3)Gal(b1-4)GlcNAc(b1-2)Man(a1-3)]Man(b1-4)GlcNAc(b1-4)GlcNAc. The gist of the method:
as §1

The target of test [11] is Gal(b1-4)GlcNAc(b1-3)Gal(b1-4)GlcNAc(b1-2)[Gal(b1-4)GlcNAc(b1-3)Gal(b1-4)GlcNAc(b1-6)]Man(a1-6)[Gal(b1-4)GlcNAc(b1-3)Gal(b1-4)GlcNAc(b1-2)Man(a1-3)]Man(b1-4)GlcNAc(b1-4)[Fuc(a1-6)]GlcNAc. The gist of the method:
as §1

Test [12] concerns the target Gal(b1-4)GlcNAc(b1-3)Gal(b1-4)GlcNAc(b1-3)Gal(b1-4)GlcNAc. The gist of the method: as §1
The target of test [13] is Gal(b1-4)GlcNAc(b1-3)Gal(b1-4)GlcNAc(b1-3)Gal(b1-4)GlcNAc(b1-2)Man(a1-3)[Gal(b1-4)GlcNAc(b1-3)Gal(b1-4)GlcNAc(b1-3)Gal(b1-4)GlcNAc(b1-2)Man(a1-6)]Man(b1-4)GlcNAc(b1-4)GlcNAc. The gist of the method: as §1
Test [14] concerns the target Gal(b1-4)GlcNAc(b1-3)Gal(b1-4)GlcNAc(b1-3)Gal(b1-4)GlcNAc(b1-2)Man(a1-3)[Gal(b1-4)GlcNAc(b1-3)Gal(b1-4)GlcNAc(b1-3)Gal(b1-4)GlcNAc(b1-2)Man(a1-6)]Man(b1-4)GlcNAc(b1-4)[Fuc(a1-6)]GlcNAc. The gist of the method:
as §1

Test [15] addresses Gal(b1-4)GlcNAc(b1-3)Gal(b1-4)GlcNAc(b1-3)Gal(b1-4)GlcNAc(b1-2)[Gal(b1-4)GlcNAc(b1-3)Gal(b1-4)GlcNAc(b1-3)Gal(b1-4)GlcNAc(b1-6)]Man(a1-6)[Gal(b1-4)GlcNAc(b1-3)Gal(b1-4)GlcNAc(b1-3)Gal(b1-4)GlcNAc(b1-2)Man(a1-3)]Man(b1-4)GlcNAc(b1-4)[Fuc(a1-6)]GlcNAc. In a few lines:
as §1

In test [16] the target is Gal(b1-4)GlcNAc(b1-3)Gal(b1-4)GlcNAc(b1-3)Gal(b1-4)GlcNAc(b1-3)Gal(b1-4)GlcNAc(b1-2)Man(a1-3)[Gal(b1-4)GlcNAc(b1-3)Gal(b1-4)GlcNAc(b1-3)Gal(b1-4)GlcNAc(b1-3)Gal(b1-4)GlcNAc(b1-2)Man(a1-6)]Man(b1-4)GlcNAc(b1-4)GlcNAc. The gist of the method:
as §1

The target of test [17] is Gal(b1-4)GlcNAc(b1-3)Gal(b1-4)GlcNAc(b1-3)Gal(b1-4)GlcNAc(b1-3)Gal(b1-4)GlcNAc(b1-2)Man(a1-3)[Gal(b1-4)GlcNAc(b1-3)Gal(b1-4)GlcNAc(b1-3)Gal(b1-4)GlcNAc(b1-3)Gal(b1-4)GlcNAc(b1-2)Man(a1-6)]Man(b1-4)GlcNAc(b1-4)[Fuc(a1-6)]GlcNAc. The gist of the method: as §1
In test [18] the target is Gal(b1-4)GlcNAc(b1-3)Gal(b1-4)GlcNAc(b1-3)Gal(b1-4)GlcNAc(b1-3)Gal(b1-4)GlcNAc(b1-2)[Gal(b1-4)GlcNAc(b1-3)Gal(b1-4)GlcNAc(b1-3)Gal(b1-4)GlcNAc(b1-3)Gal(b1-4)GlcNAc(b1-6)]Man(a1-6)[Gal(b1-4)GlcNAc(b1-3)Gal(b1-4)GlcNAc(b1-3)Gal(b1-4)GlcNAc(b1-3)Gal(b1-4)GlcNAc(b1-2)Man(a1-3)]Man(b1-4)GlcNAc(b1-4)[Fuc(a1-6)]GlcNAc. In a few lines: as §1
Test [19] has as its target Gal(b1-4)GlcNAc(b1-3)Gal(b1-4)GlcNAc(b1-3)Gal(b1-4)GlcNAc(b1-3)Gal(b1-4)GlcNAc(b1-3)Gal(b1-4)GlcNAc(b1-2)Man(a1-3)[Gal(b1-4)GlcNAc(b1-3)Gal(b1-4)GlcNAc(b1-3)Gal(b1-4)GlcNAc(b1-3)Gal(b1-4)GlcNAc(b1-3)Gal(b1-4)GlcNAc(b1-2)Man(a1-6)]Man(b1-4)GlcNAc(b1-4)GlcNAc. The gist of the method: as §1
Test [20] concerns the target Gal(b1-4)GlcNAc(b1-3)Gal(b1-4)GlcNAc(b1-3)Gal(b1-4)GlcNAc(b1-3)Gal(b1-4)GlcNAc(b1-3)Gal(b1-4)GlcNAc(b1-2)Man(a1-3)[Gal(b1-4)GlcNAc(b1-3)Gal(b1-4)GlcNAc(b1-3)Gal(b1-4)GlcNAc(b1-3)Gal(b1-4)GlcNAc(b1-3)Gal(b1-4)GlcNAc(b1-2)Man(a1-6)]Man(b1-4)GlcNAc(b1-4)[Fuc(a1-6)]GlcNAc. In a few lines: as §1
The target of test [21] is Gal(b1-4)GlcNAc(b1-3)Gal(b1-4)GlcNAc(b1-3)Gal(b1-4)GlcNAc(b1-3)Gal(b1-4)GlcNAc(b1-3)Gal(b1-4)GlcNAc(b1-2)[Gal(b1-4)GlcNAc(b1-3)Gal(b1-4)GlcNAc(b1-3)Gal(b1-4)GlcNAc(b1-3)Gal(b1-4)GlcNAc(b1-3)Gal(b1-4)GlcNAc(b1-6)]Man(a1-6)[Gal(b1-4)GlcNAc(b1-3)Gal(b1-4)GlcNAc(b1-3)Gal(b1-4)GlcNAc(b1-3)Gal(b1-4)GlcNAc(b1-3)Gal(b1-4)GlcNAc(b1-2)Man(a1-3)]Man(b1-4)GlcNAc(b1-4)[Fuc(a1-6)]GlcNAc. The gist of the method:
as §1

The target of test [22] is Gal(b1-4)GlcNAc(b1-3)Gal(b1-4)GlcNAc(b1-3)Gal(b1-4)GlcNAc(b1-3)Gal(b1-4)GlcNAc(b1-3)Gal(b1-4)GlcNAc(b1-3)Gal(b1-4)GlcNAc(b1-2)Man(a1-3)[Gal(b1-4)GlcNAc(b1-3)Gal(b1-4)GlcNAc(b1-3)Gal(b1-4)GlcNAc(b1-3)Gal(b1-4)GlcNAc(b1-3)Gal(b1-4)GlcNAc(b1-3)Gal(b1-4)GlcNAc(b1-2)Man(a1-6)]Man(b1-4)GlcNAc(b1-4)GlcNAc. In a few lines: as §1
In test [23] the target is Gal(b1-4)GlcNAc(b1-3)Gal(b1-4)GlcNAc(b1-3)GalNAc. The gist of the method:
as §1

The other results are listed elsewhere or left out.

B1: CFEM-SCL (Saccharomyces cerevisiae), O13547 (protein)
chain: MRATTLLSSVVSLALLSKEVLATPPACLLACVAQVGKSSSTCDSLNQVTCYCEHENSAVKKCLDSICPNNDADAAYSAFKSSCSEQNASLGD
As for B1, the “glycan array binding signal (z-score)” value in test [1] was -0.059; in test [2], -0.19; in test [3], -0.138; in [4], -0.282; in test [5] it was -0.16; in test [6], -0.156. For the same molecule, the “glycan array binding signal (z-score)” value is -0.182 in test [7]; 2.06 in test [8]; -0.053 in test [9]; 0.079 in [10]; 0.588 in [11]; -0.269 in test [12]. Moreover, the “glycan array binding signal (z-score)” value was 1.29 in test [13]; 0.117 in test [14]; 0.574 in [15]; -0.022 in test [16]; 0.035 in test [17]; 0.071 in test [18]. Further, the “glycan array binding signal (z-score)” value in test [19] was -0.136; in [20] it was -0.165; in test [21], 0.078; in test [22], -0.115; in test [23] it was -0.04.
